Assay results as given in PubChem BioAssay AID1347434 (National Center for Advancing Translational Sciences (NCATS), 2020).
About 30 (2%) of roughly 1,200 compounds were called active. About 23% were inconclusive and are not listed. Calls follow the shape of the dose curve; as a rule, active = well fitted inhibition curve with a large enough effect; inconclusive = small, poorly fitted or top-dose-only effect; inactive = flat fitted curve, though single readings scatter. The list shows a part of the results.

target: Single-stranded DNA cytosine deaminase (Homo sapiens) (UniProt Q9GZX7); test: Confirmatory qHTS assay for inhibitors of Activation Induced Cytidine Deaminase (AID): AID signals; details: recombinant AID, FRET deamination/UDG coupled fluorescence, 4 h; series mostly up to 115 µM; activity, negative = inhibition: at the top concentration
In short: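 Read 1 (AID) was measured at 540 ex/590 em after a 30 min NaOH step. The reaction was AID (1 uM, 4/3x stock) with UDG, compound at final 7.32 nM - 114 uM for 10 min, then DJC20/DJC23 substrate for 4 hr at room temperature. A UDG read at 560/665 serves as counterscreen.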
% is scaled to controls: 0 for no effect and ±100 for the full control effect; potency is read from the fitted curve at half-maximal effect.

Sequence of UniProt Q9GZX7 (Q9GZX7 whole entry, looked up): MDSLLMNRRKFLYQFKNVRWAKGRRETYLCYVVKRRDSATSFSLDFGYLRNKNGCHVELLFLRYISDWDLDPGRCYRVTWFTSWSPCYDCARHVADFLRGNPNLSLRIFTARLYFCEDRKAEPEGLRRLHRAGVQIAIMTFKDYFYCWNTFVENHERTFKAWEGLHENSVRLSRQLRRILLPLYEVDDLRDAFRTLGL

activity, negative = inhibition, inactive:
CCn1cc2nc(SCc3ccc(F)cc3)n(CCc3ccccc3)c(=O)c2n1 -8.36%, COCCCNC(=O)c1oc2c(c1C)-c1nn(Cc3ccccc3Cl)cc1CC2 16%, CCC1=Nc2cc(C(=O)NCCCOC)ccc2Sc2ccc(Br)cc21 -5.81%, CCCc1nc2ccccc2n2c(-c3ccccc3)c3c(=O)n(C)c(=O)n(C)c3c12 -19.8%, Cc1ccc2c(c1)C(c1ccc(F)cc1)N(C(=O)c1ccc(OC(C)C)cc1)CC(=O)N2 (centres undefined) -0.686%, CCCN(C(=O)CCc1nc(-c2ccc(OC)cc2)no1)c1ccccc1F -13.3%, COc1cccc(-n2c(-c3cccc(F)c3)nc3c(cnn3-c3ccc(C)cc3)c2=O)c1 -15.5%, CC(C)(C)OC(=O)N1CCC(c2c(C(=O)NCCc3ccccc3)cnn2-c2ccc(F)cc2)CC1 -2.62%, O=C(NCCc1nc2ccccc2n1Cc1ccc(Cl)cc1Cl)c1ccco1 -6.08%, CCCCC(CC)Cn1c(Oc2ccccc2)nc2c1c(=O)n(C)c(=O)n2C (centres undefined) -12%, COc1cc(NC(=O)CSc2nc3nc(C)c(Cc4ccccc4)c(C)n3n2)cc(OC)c1OC -14.7%, Cc1ccc(Cl)cc1NC(=O)Nc1cn(CC(C)C)c(=O)c2ccccc12 46.2%, Cc1ccccc1C(=O)Nc1ccc(C(=O)OCc2cc(=O)n3c4c(sc3n2)CCCC4)cc1 -14.7%, Cc1ccc(Cl)cc1N(C)C(=O)c1cc2ccc3cccnc3c2[nH]1 -3.21%, Cc1ccc(C)c(N2CCN(C(=O)c3cc4c(=O)n(Cc5cccs5)ccc4nc3C)CC2)c1 -7.29%, Cc1ccc(CSC2=Nc3ccccc3C3=NC(CCC(=O)NCc4cccs4)C(=O)N23)cc1 (centres undefined) -6.92%, CCn1cc(S(=O)(=O)c2ccccc2)c(=O)c2cc(F)c(N3CCCCCC3)cc21 -28.4%, Cc1ccc2c(c1)C(c1ccccc1)N(C(=O)COc1ccc(Cl)cc1Cl)CC(=O)N2 (centres undefined) -12.4%, CN(Cc1ccco1)C(=O)c1ccc2c(c1)N(Cc1ccccc1F)C(=O)c1ccccc1S2 -11.4%, CCC1CN(C(=O)N2CCC(C(=O)N3CCN(c4cccc(C)c4C)CC3)CC2)c2ccccc2O1 (centres undefined) -12.2%, COc1ccc(N2CCN(C(=O)c3cc4c(-c5ccccc5F)nn(C)c4s3)CC2)cc1 1.58%, CCOc1ccc(CCNC(=O)c2ccc3c(c2)c(C)c(C)n3C)cc1 10.6%, Cc1[nH]n2c(=O)cc(-c3ccccc3Cl)nc2c1-c1ccccc1 -8.05%, CC1CCCCN1C(=O)c1ccc2c(c1)N(Cc1ccc(Cl)cc1)C(=O)c1ccccc1S2=O (centres undefined) -21%, COc1cc2c(=O)c(C(=O)c3ccc(C)c(C)c3)cn(Cc3ccc(F)cc3)c2cc1OC -26%, CCc1nn2c(-c3ccccc3OC)ccnc2c1-c1ccccc1 -12.1%, Cc1ccc(C(=O)c2cn(Cc3ccccc3)c3nc(C)ccc3c2=O)cc1 -21.7%, CCc1cccc(-n2c(C)nc3c(cnn3-c3ccc(Cl)cc3)c2=O)c1 -9.58%, Cc1ccc(-c2cc3ncc(C(=O)c4cc([N+](=O)[O-])ccc4O)cn3n2)cc1 -25%, CCCN(CCC)C(=O)Cn1c(=O)n(Cc2ccc(C(=O)NCCc3ccc(OC)c(OC)c3)cc2)c(=O)c2ccccc21 -3.63%, Cc1cc(C)c(/C=C/c2onc(C)c2S(=O)(=O)N2CCC(C(=O)N3CCN(c4ccccc4)CC3)CC2)c(C)c1 -2.02%, O=C(CCCCn1c(=O)[nH]c2ccsc2c1=O)N1CCN(c2cccc(Cl)c2)CC1 -21.5%, C[C@]12C=CC(=O)C=C1CC[C@@H]1C2=CC[C@]2(C)[C@@H](C(=O)CN3CCN(c4cc(N5CCCC5)nc(N5CCCC5)n4)CC3)CC[C@@H]12 23%, CCn1cc(C(=O)NCCc2ccc(C)cc2)c(=O)c2cc(S(=O)(=O)N3CCC(C)CC3)ccc21 -14%, Cc1ccccc1OCCCCn1c(CCNC(=O)C(C)(C)C)nc2ccccc21 -12.3%, COc1ccc(C)cc1NC(=O)c1ccc2c(SCC(=O)O)c3c(nc2c1)CCCC3 1.98%, CCN(CC)CC(C)CNC(=O)c1cc(-c2ccc(Br)s2)nc2ccccc12 (centres undefined) -10.7%, COc1cccc(CNC(=O)c2oc3c(c2C)-c2nn(Cc4cccc(Cl)c4)cc2CC3)c1OC 14.5%, CN(Cc1ccc(F)cc1)S(=O)(=O)c1nnc(NC(=O)c2ccccc2Br)s1 -2.5%, O=C1c2ccccc2C(=O)c2c(NCCc3ccc(O)cc3)ccc(NCCc3ccc(O)cc3)c21 4.87%, CCC(C(=O)N1CCN(c2cc(C)ccc2C)CC1)n1nc(C)n2c(cc3occc32)c1=O (centres undefined) -20%, Cc1ccc(C)c(N2CCN(C(=O)c3ccc4c(c3)N(Cc3ccc(F)cc3)C(=O)c3ccccc3S4=O)CC2)c1 (centres undefined) -0.614%, Cc1cc(N)c(-n2cc3c(c2-c2ccc(Br)cc2)c(=O)n(C)c(=O)n3C)cc1C 0.306%

Potency, active:
Cc1ccc(C(=O)Nc2ccc(S(=O)(=O)O)c3cc(S(=O)(=O)O)cc(S(=O)(=O)O)c23)cc1NC(=O)c1cccc(NC(=O)Nc2cccc(C(=O)Nc3cc(C(=O)Nc4ccc(S(=O)(=O)O)c5cc(S(=O)(=O)O)cc(S(=O)(=O)O)c45)ccc3C)c2)c1 1120 nM
